First the molecules themselves.
B1: CPEB3 Ribozyme (parent)
chain: UAACAGGGGGCCACAGCAGAAGCGUUCACGUCGCAGCCCCUGUCAGAUUCUGGUGAAUCUGCGAAUUCUGCUGUAUAUCUC

This is an account of results in the RNAGym collection of RNA variant scans (doi:10.1093/nar/gkz1192).

Read counts are not given, so values of variants with three or more changes are uncertain.

The variants in this data set derive from B1. Description: self-cleavage, relative activity (ratio to wild type); higher = more cleavage; in vitro, sequencing. The gist of the method:
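For each CPEB3 ribozyme variant, relative activity is its cleaved/total read fraction divided by the unmutated ribozyme's. Barcoded error-prone PCR libraries were transcribed by T7 RNA polymerase (5 hours, 37°C) and held in DNase I for 15 min before an EDTA stop, with cleavage occurring throughout. Template-switching reverse transcription and Illumina sequencing were used to read the RNAs. A 5-read minimum applied, and results are the mean of three batches.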
With A3G A28U A45G U78C, the self-cleavage is 0.51.
As to A3G A28G G30U U31C G52A U66C U76C, the self-cleavage is 0.11.
Turning to A3G C44A A45G U60G, the self-cleavage was found to be 0.14.
With A3C G24A A45G G53A, the self-cleavage was 0.15.
As for A2U C4A A20G U49C A56G, the self-cleavage is 0.94.
Turning to A3G A64G U66C, the self-cleavage stood at 0.44.
A3C G16A U25C A28G U72C: the self-cleavage came to 0.05.
Then A2U A35U U60C C62A, with 0.07; and A3G A13G C34A G42A U74C, with 0.12.
For the variant A3G A5G U43G U80C, the self-cleavage amounted to 0.7.
Consider A2U U26A U54C A75G, for which the self-cleavage turned out to be 0.7.
With A3G G7A A15U A57G A64G, the self-cleavage is 0.08.
Regarding A3G A21G G61U C62G, the self-cleavage worked out at 0.13.
In the case of A3G A15U U54A, the self-cleavage amounted to 0.85.
With A3G A18U U49C U69C, the self-cleavage was found to be 0.03.
The same measure for A3G A21G U48A U69C: 0.07; for A3G G7A U41C U69A: 0.28.
As to A3G A18G U48C G55U U60C U76A, the self-cleavage was determined as 0.3.
Then A3G A20G G24C U26A U49A A57G G63A, with 0.05.
As for A3G A21G U26C U43A U54C U69C U80C, the self-cleavage was found to be 0.02.
A3G C17G A18G A64G A65G: the self-cleavage was determined as 0.
Take A3G A5G A15G A35U U69A: the self-cleavage came out at 0.3.
For the variant A3C A21G C40U A64G U78A, the self-cleavage is 0.22.
As to A3G A5G A13G U25C C34U U74A, the self-cleavage worked out at 0.14.
A3G A13U U31A A45G: the self-cleavage is 0.54.
For the variant A3G A20U G46U U67C, the self-cleavage turned out to be 0.19.
Regarding A3G C11G C32U C39A G46C A47G A77G, the self-cleavage was 0.04.
The same measure for A3G C23U A35U U43C U67C C68A U80C: 0.15; for A3G A35G A64U: 1.12.
For A2U C4U G9U A15G, the self-cleavage was 0.51.
In the case of A2U C14U A18C A64G, the self-cleavage amounted to 0.1.
Turning to A3G A5G U41G U66C U72C, the self-cleavage turned out to be 0.15.
Take A2U U25C A28G: the self-cleavage was 0.11.
Regarding A3C G10A U25C U51A, the self-cleavage is 0.44.
In the case of A2U C34G C40A U49A U69A, the self-cleavage was found to be 0.23.
For the variant A3G A21C G30C, the self-cleavage was determined as 0.5.
Then A3G G6A U48C U69C, with 0.14; and A3G A28U U31C A35U U76A U78C, with 0.76; and A2U U25C A45G, with 0.42.
Then A3G A13G A28G A35G U60C A65G, with 0.4.
Consider A3G A20G A47U U51C U54C, for which the self-cleavage worked out at 0.17.
The same measure for A3G C37U U78C: 0.67.
As for A3G A18U A35U, the self-cleavage is 0.48.
As for A3G A5C A57G, the self-cleavage came to 0.86.
On to A3G C17U C40U A45G, for which the self-cleavage came to 0.24.
In the case of A2U U26C G36A C38U U72C U78A, the self-cleavage was determined as 0.06.
Consider A3G A47U U72C, for which the self-cleavage is 0.24.
For A3C C17G C38A A45G U51A U58C A65U, the self-cleavage came out at 0.08.
The same measure for A3G G7A U43C A65G U80C: 0.06; for A3G A13U A15U U69C G73A: 0.21; for A3C U25G C68U U78C: 0.1.
A3G A47G U66C: the self-cleavage was 0.43.
As for A3C A13G A20G U41A U43C A64U U69C, the self-cleavage was 0.08.
Consider A3G A57G U74C, for which the self-cleavage worked out at 1.14.
The same measure for A3G C39A G73C: 0.51; for A3G A5G U25C U43A: 0.61; for A3G A15G U31A U58A: 0.51.
The same measure for A3G C38A U49C U54C: 0.08.
The same measure for A3G A5G A18G C32U A47G U60C U66G: 0.07.
As for A3G A20G U41A G42A, the self-cleavage worked out at 0.06.
The same measure for A2U U26C A47G: 0.71.
For A3G A20G A28G U60A U66C, the self-cleavage stood at 0.17.
For the variant A3G A28G A77U, the self-cleavage stood at 0.67.
Take A3G A5C G8C A18G U26C A56G G73C: the self-cleavage is 0.9.
The same measure for A3G A5G G8C A18G A75U U80A: 0.12; for A3G A13U U51A A57U: 0.52; for A3G A20G G24A A28G U31C G36A U69C: 0.06.
As for A3G C17U U25G G55U A65U, the self-cleavage was 0.07.
With A3G A5G C38A, the self-cleavage worked out at 0.5.
The same measure for A3G A13G G16U G53C: 0.13.
Regarding A3G A18C U25A U60C U72C G73A A77G, the self-cleavage was 0.28.
As for A3G A64G A65G, the self-cleavage was determined as 0.36.
Consider A3G A13U U67C, for which the self-cleavage was 0.33.
Then A3G A20G U26C A47G U58C, with 0.59; and A3C A28G A35C, with 0.37.
As to A3G A13G A15U U49C A64U, the self-cleavage amounted to 0.05.
As for A3G C38A A57G U60C U78C, the self-cleavage is 0.04.
Regarding A3G A45C U54C U58C U72A, the self-cleavage was determined as 0.23.
In the case of A3G A5G A35G U51G U80A, the self-cleavage worked out at 1.21.
Then A3G A15C C23U A28G G61U U80C, with 0.43; and A3G A5G A13G A20U A65G C71U, with 0.26.
Turning to A3C A15G U26C A28U, the self-cleavage is 0.57.
On to A3G A15G U48C U54A A64C, for which the self-cleavage was determined as 0.43.
The same measure for A3G A18U A21G A47G U54A U60A A65U: 0.12.
On to A2U A45G A56G, for which the self-cleavage amounted to 0.51.
As for A3G A15G A45G, the self-cleavage was found to be 0.59.
In the case of A3G A5G A20G U25C A65G U78C, the self-cleavage is 0.35.
The same measure for A3C A5U A18G A35G U60A: 0.97.
Then A3G A18G U66A U69A U78C, with 0.18; and A3G A5G A21G A47G, with 0.39; and A3G A45G A75U, with 1.03.
As for A3G A13U A21G U49C U51C U54C, the self-cleavage came out at 0.54.
A3G A35U U69C U78C: the self-cleavage was 0.09.
In the case of A2U G24U A45G A47G U49A U51C, the self-cleavage came to 0.12.
A2U A45U A64G: the self-cleavage stood at 0.24.
The same measure for A3G A35U U49C C68A: 0.06; for A3C A20G C39U: 0.41.
The same measure for A3G G7U A13G A20U U25C A35G: 0.11; for A2U C23U U48C: 0.38; for A3G C11G U26A U58A U60A U72A: 0.07.
A3G A5U A13U A21G U67C U76C: the self-cleavage came to 0.19.
With A3G C34G U51A, the self-cleavage was 0.79.
Turning to A2U C12A A21G U51G U74A, the self-cleavage is 1.09.
Then A3G G6A A18G C38A U67C, with 0.24.
The same measure for A3G A21G U25C: 0.57.
The same measure for A3G A57G A65G U80C: 0.23.
Consider A3G A56U A64G, for which the self-cleavage turned out to be 0.54.
Then A3G A5U U72G U78A, with 1.07; and A3G A15G A45C U54A U58A U69A A77G, with 0.39; and A3G A15G G19U U51A G61A, with 0.08.
Consider A3C A5G A18U A64G U69C, for which the self-cleavage is 0.11.
The same measure for A3G A18U G36A C40A: 0.28; for A3C G8A G33A A35G U60C U72A: 0.05; for A3G G6U A15G U43A U51C A56G U78C: 0.19.
For the variant A3G A5U A35U U54A U72C, the self-cleavage stood at 0.74.
Then A3C A13G A20C G33A G36A U43C, with 0.11.
As to A3G A56U A64U U69A A77G, the self-cleavage was 0.26.
For the variant A3G A28G U58A, the self-cleavage is 0.09.
Take A3C A21G A47U: the self-cleavage was 0.75.
In the case of A3G C27A U76A, the self-cleavage amounted to 0.1.
Consider A3G A20G G33A, for which the self-cleavage came to 0.07.
Take A3G C12U U69A: the self-cleavage came to 0.96.
As to A2U U25C U41C U51A, the self-cleavage worked out at 0.37.
In the case of A3G A5G U51A, the self-cleavage was 0.45.
Then A3G A13U U26A, with 0.8; and A3G A21U A28U, with 0.62.
In the case of A3G A21U A28G, the self-cleavage was 0.17.
A2U U58C U80A: the self-cleavage was determined as 0.75.
As to A3G C34U U43A U66C, the self-cleavage turned out to be 0.71.
For A3G A13U A20U U41C, the self-cleavage came to 0.51.
Take A3G A57G U67C: the self-cleavage is 0.43.
For A2U A35G U51A C62U, the self-cleavage amounted to 0.89.
For the variant A3G A15G U48C U54A, the self-cleavage amounted to 0.5.
Turning to A2U G19A A56G U58C U78C, the self-cleavage worked out at 0.07.
On to A2U U67A U69A, for which the self-cleavage worked out at 0.25.
Then A3G A15G U43C A47G C59U U69G U72C, with 0.15; and A3G A21G U41A A45U U60C A64G, with 0.12.
A2U C11G U66A: the self-cleavage was determined as 0.27.
Then A2U C4U A45G, with 1.1.
Take A2U U26C U43C U66C: the self-cleavage was 0.38.
In the case of A3G G7C G53C A57G C62A G73A, the self-cleavage stood at 0.06.
For A2U A35G U41A U48C, the self-cleavage was determined as 0.32.
Regarding A2U U25C U26C U41A U51C A64C, the self-cleavage came to 0.22.
Take A3G A5U G9A: the self-cleavage turned out to be 0.58.
In the case of A3G G6A A18G U25C U51C, the self-cleavage was 0.12.
On to A3G C40U U43G U60C U80C, for which the self-cleavage is 0.22.
For A3G C12U A28G G55A U69C U78C, the self-cleavage worked out at 0.23.
The same measure for A3G A13G G22A U60A G73A: 0.24.
The same measure for A2U C38U A47G: 0.72; for A3G A28G U31C C38G: 0.14.
Turning to A3G A21G A77G, the self-cleavage is 0.85.
The same measure for A3C U25A U51C A64U U72C U80C: 0.1; for A3G C14U U43A U67C U72C: 0.31.
As to A3G A15G A18U U48C U51C A64G U78C, the self-cleavage is 0.
Regarding A3G A21G C40U U49C U67A U72C, the self-cleavage came to 0.04.
The same measure for A3G A15C U49G: 1.02; for A3G G7A U54C A77U: 0.1; for A3G A56G U67C: 0.39.
For the variant A2U A47G U66C U72C, the self-cleavage was determined as 0.32.
For the variant A2U G9A A18U A56U U78C, the self-cleavage turned out to be 0.04.
The same measure for A3G A13C U25A U26C C50U C68U A75G: 0.06; for A2U U25C C50A A56G: 0.26.
Turning to A2U C12U U66C A77U, the self-cleavage worked out at 0.59.
The same measure for A3C A15U A28U U66C: 0.2; for A3G A13G U31C U51C A57U: 0.21.
Regarding A3G C4U A5G G8A U25C C34U U69A, the self-cleavage turned out to be 0.1.
The same measure for A3G A15G U41G A45G: 0.6.
